Data taken from PubChem BioAssay AID686978 (National Center for Advancing Translational Sciences (NCATS), 2013).
The whole screen tested about 420,000 compounds, of which about 64,000 (15%) were called active. The shares of active, inactive and inconclusive entries below differ from those in the screen. The call rests on the fitted dose curve; in most records, active means well fitted inhibition curve with a large enough effect; inconclusive means small, poorly fitted or top-dose-only effect; inactive means flat fitted curve, though single readings scatter. Potencies of inconclusive entries are left out as doubtful fits.

assay: qHTS for Inhibitors of human tyrosyl-DNA phosphodiesterase 1 (TDP1): qHTS in cells in absence of CPT; settings: DT40 Tdp1-/- hTDP1 cells, no CPT, ATP luminescence, 48 h; activity change, negative = growth inhibition: at 46.2 µM (top of the series) unless noted; further: nearly all actives have a fitted effect of over 55% in size
Method in brief: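 Chicken DT40 Tdp1-/- cells stably complemented with human TDP1 were seeded at 400 cells/well with DMSO in place of 20 nM camptothecin. After compound pinning, cells grew at least 48 hr at 37 °C; viability read by CellTiter-Glo luminescence.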
On the % scale 0 is the no-effect control and ±100 the full control effect; potency means the concentration at half of the fitted maximal effect; tags describe the fitted curve by direction and shape.

Row | Structure (SMILES) | activity change, negative = growth inhibition | Potency
1 | C=CCSc1nc2ccccc2n1S(=O)(=O)c1ccc(C)cc1 | inactive: -27.3% | –
2 | COc1ccc(NC(=O)c2cccnc2)c(OC)c1 | inactive: 2.66% | –
3 | CS(=O)(=O)N(Cc1ccccc1)c1ccc(C(=O)N2CCN(c3cccc(Cl)c3)CC2)cc1 | – | active: 14.1 µM
4 | CCOc1ccc(-c2n[nH]c(C)c2Oc2ccccc2OC)c(O)c1 | – | inconclusive [inhibitor, single point]
5 | O=c1c(C=NCCCO)c(-c2ccccc2)[nH]n1-c1nc2ccccc2s1 | – | inconclusive [inhibitor, partial curve]
6 | CN(CCc1ccccc1)C1CCCN(S(=O)(=O)c2cccc(F)c2)C1 (stereo unspecified) | – | inconclusive [inhibitor, partial curve]
7 | COc1ccc(Cn2c(=O)n(-c3ccccc3C)c(=O)c3c4c(sc32)CN(C(C)=O)CC4)cc1 | – | inconclusive [inhibitor, single point]
8 | CCOc1ccccc1N1CC(C(=O)N(Cc2nnc(-c3ccccc3Cl)o2)C2CC2)CC1=O (stereo unspecified) | – | inconclusive [inhibitor, single point]
9 | CCOC(=O)N1CCN(C(=O)CSc2nnc(-c3c[nH]c4ccccc34)n2CCOC)CC1 | – | active: 20.6 µM
10 | CC1(C)Cc2c(C#N)c(N3CCN(C(=O)c4ccccc4Cl)CC3)nc(-c3ccco3)c2CS1 | – | inconclusive [inhibitor, single point]
11 | O=C(Cc1cccc(NC(=O)C2CCN(S(=O)(=O)c3cccc([N+](=O)[O-])c3)CC2)c1)Nc1cccc(C(=O)N2CCCCC2)c1 | inactive: -11.5% | –
12 | CC(C)CC(=O)Nc1ccc2nc(SCC(=O)N3CCCC3)sc2c1 | – | active: 23.1 µM
13 | COc1ccc(NC(=O)/C(=C\c2ccccc2)NC(=O)c2ccco2)cc1 | inactive: 14.1% | –
14 | COc1cccc(NC2c3ccccc3C(=O)N2Cc2ccccc2Cl)c1 (stereo unspecified) | – | inconclusive [inhibitor, single point]
15 | Cc1cccc(C(=O)N(Cc2ccc(C)o2)C2CCS(=O)(=O)C2)c1 (stereo unspecified) | inactive: 11.7% | –
16 | COc1ccc(NC(=O)N2CCc3c(sc4c3CCCC4)C2c2ccccc2OC)cc1 (stereo unspecified) | – | active: 13 µM
17 | CCCCNC(=O)c1ccc2nc(-c3ccco3)c(-c3ccco3)nc2c1 | – | inconclusive [inhibitor, single point]
18 | O=C(Cc1cc(=O)[nH][nH]1)N/N=C/c1c(Cl)cccc1Cl | – | inactive
19 | OCC1(Cc2ccc(Cl)cc2)CCN(CCCc2ccccc2)CC1 | – | active: 23.1 µM
20 | Cc1ccc(NC(=O)CCn2nc(C)c(S(=O)(=O)N3CCCCC3)c2C)cc1Cl | – | active: 16.4 µM
21 | CCCCC(=O)NN(C)c1nc(-c2ccccc2)nnc1C(F)(F)F | – | inconclusive [inhibitor, partial curve]
22 | COc1ccc(-c2cc(C(F)(F)F)n3nc(C(=O)NCCCn4ccnc4)cc3n2)cc1 | – | inconclusive [inhibitor, single point]
23 | Nc1ccc(C(=O)N/N=C/c2cn(Cc3ccc(F)cc3)c3ccccc23)cc1 | inactive: -9.52% | –
24 | CCOC(=O)c1c(C)sc(-c2c(-c3cc(C)ccc3C)[nH]c3c2c(=O)n(C)c(=O)n3C)c1O | – | inconclusive [inhibitor, single point]

Row | Structure (SMILES) | activity change, negative = growth inhibition | Potency
25 | COc1c(C)cccc1C(=O)Nc1ccc(N2CCOCC2)c(Cl)c1 | – | inconclusive [inhibitor, partial curve]
26 | CCN1C[C@@H]2[C@@H]3C(=O)N(Cc4ccccc4)C(=O)[C@@H]3[C@](CC)(C1=O)N2C(=O)c1ccccc1 | inactive: -0.172% | –
27 | COc1ccccc1N1CCN(C(=O)c2ccccc2Oc2ccccc2)CC1 | – | inconclusive [inhibitor, partial curve, poor fit]
28 | Cc1ccc(NC(=O)CCNC(=O)c2ccccc2Cl)cc1S(=O)(=O)N1CCOCC1 | inactive: -3.41% | –
29 | O=C(NCCCc1ccc(F)cc1)C1CCC(=O)N(CC2CCCCC2)C1 (stereo unspecified) | – | inconclusive [inhibitor, single point]
30 | Cc1ccc(NS(=O)(=O)c2ccc(C(=O)N3CCN(c4ccccn4)CC3)cc2)cc1 | – | active: 11.6 µM
31 | Cc1cccc(NC(=O)CSc2ccc(-c3cccnc3)nn2)c1 | – | inconclusive [inhibitor, single point]
32 | O=C(CSc1nnc2scc(-c3ccc(F)cc3)n12)NCc1ccco1 | inactive: -2.24% | –
33 | CC(Sc1nc(-c2ccccc2)cc(C(F)(F)F)n1)C(=O)Nc1sc2c(c1C#N)CCC2 (stereo unspecified) | – | inconclusive [inhibitor, single point]
34 | O=c1[nH]c(=S)[nH]c2n[nH]nc12 | inactive: 4.15% | –
35 | CCN(c1ccc(C)cc1)S(=O)(=O)c1nnc(NC(=O)C2CCCCC2)s1 | – | active: 10.3 µM
36 | C[C@H](/C=C/[C@@]1(O)[C@H](C)C[C@H](O)CC1(C)C)O[C@@H]1O[C@H](CO)[C@@H](O)[C@H](O)[C@H]1O | inactive: -18.1% | –
37 | Cc1ccc(OCC(=O)NCC(c2ccc(Cl)cc2)N2CCCCC2)cc1 (stereo unspecified) | – | inconclusive [inhibitor, single point]
38 | Cn1c(-c2sccc2OCc2ccc(Cl)cc2Cl)n[nH]c1=S | – | inconclusive [inhibitor, single point]
39 | Cc1ccc(C)c(CN2C(=O)c3ccccc3S(=O)(=O)c3ccc(C(=O)N4CCc5ccccc54)cc32)c1 | – | active: 5.8 µM
40 | CCN(CC)c1ccc(/C=N/n2c(C)nc3ccccc3c2=O)cc1 | – | inconclusive [inhibitor, partial curve, poor fit]
41 | CCOC(=O)/C(=C\c1ccc([N+](=O)[O-])cc1)C(=O)c1cc(C(C)=O)c(Nc2ccccc2)s1 | – | active: 0.731 µM
42 | CCCNC(=O)CSc1nc2ccccc2nc1Cc1ccc(Cl)cc1 | – | inconclusive [inhibitor, single point]
43 | CCC(C)Oc1nc(C)cc(C)c1S(=O)(=O)c1ccccc1C (stereo unspecified) | – | active: 16.4 µM
44 | C[C@H]1CN=C(N(C)C)N1CCCC1CCCCC1 | – | active: 16.4 µM
45 | O=C(Cn1cc(COc2c(Br)cc(F)cc2Br)nn1)c1ccc(O)cc1 | – | inconclusive [inhibitor, single point]
46 | Cc1cc(C(=O)Nc2ccccc2N2CCOCC2)ccc1[N+](=O)[O-] | – | inconclusive [inhibitor, single point]
47 | COc1ccc(F)cc1C(=O)C1CCCN(C(=O)c2ccccc2N(C)C)C1 (stereo unspecified) | – | active: 18.4 µM
48 | CN(Cc1ccc(OCC(O)CN(C)Cc2ccccc2)cc1)Cc1nccn1C (stereo unspecified) | – | inconclusive [inhibitor, partial curve]

Row | Structure (SMILES) | activity change, negative = growth inhibition | Potency
49 | Cc1noc(C)c1COc1ccc(C(=O)N(C)CCOc2ccccc2)cc1 | – | inconclusive [inhibitor, single point]
50 | CC(C)Oc1ccc(CN2CCC2(C)C(=O)Nc2cccc(Oc3ccccc3)c2)cc1 (stereo unspecified) | – | inconclusive [inhibitor, single point]
51 | COC(=O)c1cc2c(ccn2-c2ccc(F)cc2)n1Cc1ccc(OC(C)=O)cc1 | – | inconclusive [inhibitor, single point]
52 | CN1CCN(CCOC2Cc3ccccc3Sc3ccc(Cl)cc32)CC1 (stereo unspecified) | – | active: 20.6 µM
53 | CCN(CC)S(=O)(=O)c1cc(NC(=O)C2CC(=O)N(Cc3ccccc3)C2)ccc1Cl (stereo unspecified) | – | active: 16.4 µM
54 | COc1cccc2sc(N)nc12 | – | inconclusive [inhibitor, single point]
55 | O=C1CCC(C(=O)N2CCc3ccccc3C2)CN1CCCN1CCOCC1 (stereo unspecified) | inactive: -1.89% | –
56 | CCC1=Nc2cc(C(=O)NCC(C)c3ccccc3)ccc2Sc2ccc(C)cc21 (stereo unspecified) | – | active: 23.1 µM
57 | Cc1cccc(C(=O)O/N=C(\N)c2ccccn2)c1 | – | inconclusive [inhibitor, single point]
58 | CCOC(=O)C(CCCOc1ccc(C)cc1)C(=O)OCC | inactive: -9.41% | –
59 | CCNC(=S)NNC(=O)CCc1nc2cc(Cl)ccc2n(Cc2ccccc2)c1=O | – | inconclusive [inhibitor, single point]
60 | COC(=O)c1ccc(NC(=O)CCc2c(C)nc3c(-c4ccccc4)c(C)nn3c2C)cc1 | – | inconclusive [inhibitor, single point]
61 | O=C(O)CSc1nc2ccccc2[nH]1 | – | inconclusive [inhibitor, single point]
62 | COc1ccc(C(=O)Cc2ccccc2)cc1OC | inactive: 16.2% | –
63 | CCOC(=O)c1ccc(OCC2c3cc(OC)c(OC)cc3CCN2C(=O)c2ccc(S(=O)(=O)N3CCCC3)cc2)cc1 (stereo unspecified) | – | inconclusive [inhibitor, partial curve]
64 | Cc1nn(C)c(Cl)c1CN1CCC(Oc2ccc(C(=O)N3CCCC3)cc2)CC1 | – | inconclusive [inhibitor, partial curve]
65 | Cc1cc2[nH]c3c(c[n+](C)c4ccccc34)c2cc1C | – | active: 1.64 µM
66 | Nc1nc(-c2ccccc2)cs1 | inactive: 0.752% | –
67 | COc1ccc(-c2cc(-c3cccs3)nc(OC)c2C#N)cc1OC | – | active: 29.1 µM
68 | Cc1nc2c3c4c(sc3n3c(SCC(=O)NCc5ccco5)nnc3n2n1)COC(C)(C)C4 | – | inconclusive [inhibitor, partial curve, poor fit]
69 | Cc1ccc(Cn2cc(C(=O)c3ccc(F)cc3)c(=O)c3cc4c(cc32)OCO4)cc1 | – | inconclusive [inhibitor, single point]
70 | Oc1ccc2oc3c(c2c1/C=N/n1cnnc1)CCCC3 | – | inconclusive [inhibitor, partial curve]
71 | CCCCOc1ccc(Cc2cnc(N)nc2N)cc1 | – | inconclusive [inhibitor, partial curve, poor fit]
